Source: the supplement of paper PMC8728848
The list shows a part of the results.

Experiments:
Experiment in all cases: glycan array binding signal (z-score within array); higher = stronger binding
Settings in all cases: glycan notation: IUPAC condensed, linker removed
Fuc(a1-2)Gal = biological target: Fuc(a1-2)Gal
Method in brief: (§1)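 Arrays were curated from the Consortium for Functional Glycomics database, 3228 in total, and kept only where the protein sequence was available. Binding is expressed as a within-array Z-score. This score was averaged across arrays of the same protein sequence at different concentrations or buffers and across linkers, and negative values can be read as non-binding.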

Fuc(a1-2)Gal(b1-3)GalNAc = biological target: Fuc(a1-2)Gal(b1-3)GalNAc
Method in brief: as §1

[1] = biological target: Fuc(a1-2)Gal(b1-3)GalNAc(b1-3)Gal
Method in brief: as §1

[2] = biological target: Fuc(a1-2)Gal(b1-3)GalNAc(b1-3)Gal(a1-4)Gal(b1-4)Glc
Method in brief: as §1

[3] = biological target: Fuc(a1-2)Gal(b1-3)GalNAc(b1-4)[Neu5Ac(a2-3)]Gal(b1-4)Glc
Method in brief: as §1

Fuc(a1-2)Gal(b1-3)GlcNAc = biological target: Fuc(a1-2)Gal(b1-3)GlcNAc
Method in brief: as §1

[4] = biological target: Fuc(a1-2)Gal(b1-3)GlcNAc(b1-3)Gal(b1-4)Glc
Method in brief: as §1

[5] = biological target: Fuc(a1-2)Gal(b1-3)[Fuc(a1-4)]GlcNAc
Method in brief: as §1

Fuc(a1-2)Gal(b1-4)Glc = biological target: Fuc(a1-2)Gal(b1-4)Glc
Method in brief: as §1

Fuc(a1-2)Gal(b1-4)GlcNAc = biological target: Fuc(a1-2)Gal(b1-4)GlcNAc
Method in brief: as §1

[6] = biological target: Fuc(a1-2)Gal(b1-4)GlcNAc(b1-3)Gal(b1-4)GlcNAc
Method in brief: as §1

[7] = biological target: Fuc(a1-2)Gal(b1-4)GlcNAc(b1-3)Gal(b1-4)GlcNAc(b1-3)Gal(b1-4)GlcNAc
Method in brief: as §1

[8] = biological target: Fuc(a1-2)Gal(b1-4)[Fuc(a1-3)]GlcNAc
Method in brief: as §1

[9] = biological target: Fuc(a1-2)Gal(b1-4)[Fuc(a1-3)]GlcNAc(b1-3)Gal(b1-4)[Fuc(a1-3)]GlcNAc
Method in brief: as §1

[10] = biological target: Fuc(a1-2)Gal(b1-4)[Fuc(a1-3)]GlcNAc(b1-3)Gal(b1-4)[Fuc(a1-3)]GlcNAc(b1-3)Gal(b1-4)[Fuc(a1-3)]GlcNAc
Method in brief: as §1

Fuc(a1-2)GlcNAc = biological target: Fuc(a1-2)GlcNAc
Method in brief: as §1

Fuc(a1-2)[Gal(a1-3)]Gal = biological target: Fuc(a1-2)[Gal(a1-3)]Gal
Method in brief: as §1

[11] = biological target: Fuc(a1-2)[Gal(a1-3)]Gal(b1-3)GlcNAc
Method in brief: as §1

[12] = biological target: Fuc(a1-2)[Gal(a1-3)]Gal(b1-4)Glc
Method in brief: as §1

[13] = biological target: Fuc(a1-2)[Gal(a1-3)]Gal(b1-4)GlcNAc
Method in brief: as §1

[14] = biological target: Fuc(a1-2)[Gal(a1-3)]Gal(b1-4)[Fuc(a1-3)]GlcNAc
Method in brief: as §1

[15] = biological target: Fuc(a1-2)[Gal(a1-4)]Gal(b1-4)GlcNAc
Method in brief: as §1

[16] = biological target: Fuc(a1-2)[GalNAc(a1-3)]Gal
Method in brief: as §1

[17] = biological target: Fuc(a1-2)[GalNAc(a1-3)]Gal(b1-3)GlcNAc
Method in brief: as §1

[18] = biological target: Fuc(a1-2)[GalNAc(a1-3)]Gal(b1-4)Glc
Method in brief: as §1

[19] = biological target: Fuc(a1-2)[GalNAc(a1-3)]Gal(b1-4)GlcNAc
Method in brief: as §1

[20] = biological target: Fuc(a1-2)[GalNAc(a1-3)]Gal(b1-4)[Fuc(a1-3)]GlcNAc
Method in brief: as §1

[21] = biological target: Fuc(a1-2)[GalNAc(a1-4)]Gal(b1-4)GlcNAc
Method in brief: as §1

[22] = biological target: Fuc(a1-2)[GalNAc(b1-3)]Gal
Method in brief: as §1

Fuc(a1-3)GlcNAc = biological target: Fuc(a1-3)GlcNAc
Method in brief: as §1

[23] = biological target: Fuc(a1-3)[Gal(b1-4)]GlcNAc
Method in brief: as §1

[24] = biological target: Fuc(a1-3)[Gal(b1-4)]GlcNAc(b1-4)Gal(b1-4)[Fuc(a1-3)]GlcNAc
Method in brief: as §1

[25] = biological target: Fuc(a1-3)[Gal(b1-4)]GlcNAc(b1-4)Gal(b1-4)[Fuc(a1-3)]GlcNAc(b1-4)Gal(b1-4)[Fuc(a1-3)]GlcNAc
Method in brief: as §1

[26] = biological target: Fuc(a1-3)[Gal3S(b1-4)]GlcNAc
Method in brief: as §1

[27] = biological target: Fuc(a1-3)[GalNAc(b1-4)]GlcNAc
Method in brief: as §1

Fuc(a1-4)GlcNAc = biological target: Fuc(a1-4)GlcNAc
Method in brief: as §1

Fuc(b1-3)GlcNAc = biological target: Fuc(b1-3)GlcNAc
Method in brief: as §1

Gal(a1-2)Gal = biological target: Gal(a1-2)Gal
Method in brief: as §1

Gal(a1-3)Gal = biological target: Gal(a1-3)Gal
Method in brief: as §1

Gal(a1-3)Gal(b1-3)GlcNAc = biological target: Gal(a1-3)Gal(b1-3)GlcNAc
Method in brief: as §1

Gal(a1-3)Gal(b1-4)Glc = biological target: Gal(a1-3)Gal(b1-4)Glc
Method in brief: as §1

Gal(a1-3)Gal(b1-4)GlcNAc = biological target: Gal(a1-3)Gal(b1-4)GlcNAc
Method in brief: as §1

[28] = biological target: Gal(a1-3)Gal(b1-4)[Fuc(a1-3)]GlcNAc
Method in brief: as §1

Gal(a1-3)GalNAc = biological target: Gal(a1-3)GalNAc
Method in brief: as §1

[29] = biological target: Gal(a1-3)[Gal(a1-4)]Gal(b1-4)GlcNAc
Method in brief: as §1

B1: AICL (Homo sapiens), Q92478 (protein)
chain: MMTKHKKCFIIVGVLITTNIITLIVKLTRDSQSLCPYDWIGFQNKCYYFSKEEGDWNSSKYNCSTQHADLTIIDNIEEMNFLRRYKCSSDHWIGLKMAKNRTGQWVDGATFTKSFGMRGSEGCAYLSDDGAATARCYTERKWICRKRIH
**Q.** Which “glycan array binding signal (z-score)” value (Fuc(a1-2)Gal) does the source give for B1 here?
**A.** -0.425

**Q.** What about the “glycan array binding signal (z-score)” value (Fuc(a1-2)Gal(b1-3)GalNAc) of the same binder?
**A.** -0.338

**Q.** What about the “glycan array binding signal (z-score)” value [1] of the same binder?
**A.** 0.755

**Q.** And the “glycan array binding signal (z-score)” value [2]?
**A.** -0.076

**Q.** And the “glycan array binding signal (z-score)” value [3]?
**A.** -0.209

**Q.** What about the “glycan array binding signal (z-score)” value (Fuc(a1-2)Gal(b1-3)GlcNAc) of the same binder?
**A.** -0.386

**Q.** What about the “glycan array binding signal (z-score)” value [4] of the same binder?
**A.** -0.41

**Q.** What about the “glycan array binding signal (z-score)” value [5] of the same binder?
**A.** 2

**Q.** And the “glycan array binding signal (z-score)” value (Fuc(a1-2)Gal(b1-4)Glc)?
**A.** -0.459

**Q.** What about the “glycan array binding signal (z-score)” value (Fuc(a1-2)Gal(b1-4)GlcNAc) of the same binder?
**A.** 0.25

**Q.** And the “glycan array binding signal (z-score)” value [6]?
**A.** -0.446

**Q.** And the “glycan array binding signal (z-score)” value [7]?
**A.** -0.109

**Q.** And the “glycan array binding signal (z-score)” value [8]?
**A.** -0.295

**Q.** What about the “glycan array binding signal (z-score)” value [9] of the same binder?
**A.** -0.049

**Q.** What about the “glycan array binding signal (z-score)” value [10] of the same binder?
**A.** 0.298

**Q.** And the “glycan array binding signal (z-score)” value (Fuc(a1-2)GlcNAc)?
**A.** -0.398

**Q.** What about the “glycan array binding signal (z-score)” value (Fuc(a1-2)[Gal(a1-3)]Gal) of the same binder?
**A.** -0.508

**Q.** What about the “glycan array binding signal (z-score)” value [11] of the same binder?
**A.** -0.498

**Q.** And the “glycan array binding signal (z-score)” value [12]?
**A.** -0.329

**Q.** What about the “glycan array binding signal (z-score)” value [13] of the same binder?
**A.** -0.312

**Q.** What about the “glycan array binding signal (z-score)” value [14] of the same binder?
**A.** -0.22

**Q.** And the “glycan array binding signal (z-score)” value [15]?
**A.** -0.399

**Q.** And the “glycan array binding signal (z-score)” value [16]?
**A.** -0.433

**Q.** And the “glycan array binding signal (z-score)” value [17]?
**A.** -0.128

**Q.** What about the “glycan array binding signal (z-score)” value [18] of the same binder?
**A.** -0.265

**Q.** And the “glycan array binding signal (z-score)” value [19]?
**A.** -0.158

**Q.** What about the “glycan array binding signal (z-score)” value [20] of the same binder?
**A.** -0.191

**Q.** And the “glycan array binding signal (z-score)” value [21]?
**A.** -0.482

**Q.** What about the “glycan array binding signal (z-score)” value [22] of the same binder?
**A.** -0.203

**Q.** What about the “glycan array binding signal (z-score)” value (Fuc(a1-3)GlcNAc) of the same binder?
**A.** -0.024

**Q.** What about the “glycan array binding signal (z-score)” value [23] of the same binder?
**A.** -0.169

**Q.** What about the “glycan array binding signal (z-score)” value [24] of the same binder?
**A.** 0.531

**Q.** What about the “glycan array binding signal (z-score)” value [25] of the same binder?
**A.** -0.269

**Q.** What about the “glycan array binding signal (z-score)” value [26] of the same binder?
**A.** -0.352

**Q.** And the “glycan array binding signal (z-score)” value [27]?
**A.** -0.23

**Q.** And the “glycan array binding signal (z-score)” value (Fuc(a1-4)GlcNAc)?
**A.** -0.412

**Q.** And the “glycan array binding signal (z-score)” value (Fuc(b1-3)GlcNAc)?
**A.** -0.469

**Q.** And the “glycan array binding signal (z-score)” value (Gal(a1-2)Gal)?
**A.** 0.211

**Q.** And the “glycan array binding signal (z-score)” value (Gal(a1-3)Gal)?
**A.** -0.224

**Q.** What about the “glycan array binding signal (z-score)” value (Gal(a1-3)Gal(b1-3)GlcNAc) of the same binder?
**A.** -0.464

**Q.** What about the “glycan array binding signal (z-score)” value (Gal(a1-3)Gal(b1-4)Glc) of the same binder?
**A.** 0.176

**Q.** What about the “glycan array binding signal (z-score)” value (Gal(a1-3)Gal(b1-4)GlcNAc) of the same binder?
**A.** -0.382

**Q.** And the “glycan array binding signal (z-score)” value [28]?
**A.** -0.431

**Q.** And the “glycan array binding signal (z-score)” value (Gal(a1-3)GalNAc)?
**A.** 0.747

**Q.** What about the “glycan array binding signal (z-score)” value [29] of the same binder?
**A.** -0.447
